From US20250387474A1 (MEDICENNA THERAPEUTICS, published 2025)

T1: human IL-13Rα1 (human, UniProt P78552 22-343)
T1 construct: also called Human IL-13 R alpha 1 Protein; IL-13 functional receptor
T1 sequence (looked up): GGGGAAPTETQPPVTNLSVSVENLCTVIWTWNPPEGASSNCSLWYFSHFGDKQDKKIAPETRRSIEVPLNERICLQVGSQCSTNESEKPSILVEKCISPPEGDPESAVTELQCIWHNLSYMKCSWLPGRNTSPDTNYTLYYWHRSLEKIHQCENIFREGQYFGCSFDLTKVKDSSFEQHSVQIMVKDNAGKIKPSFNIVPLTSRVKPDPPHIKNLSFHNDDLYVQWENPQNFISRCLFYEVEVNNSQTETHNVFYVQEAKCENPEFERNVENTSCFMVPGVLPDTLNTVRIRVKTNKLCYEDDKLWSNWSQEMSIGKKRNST

T2: CD25 on CTLL-2 cells (mouse, UniProt P01590 22-268)
T2 sequence (looked up): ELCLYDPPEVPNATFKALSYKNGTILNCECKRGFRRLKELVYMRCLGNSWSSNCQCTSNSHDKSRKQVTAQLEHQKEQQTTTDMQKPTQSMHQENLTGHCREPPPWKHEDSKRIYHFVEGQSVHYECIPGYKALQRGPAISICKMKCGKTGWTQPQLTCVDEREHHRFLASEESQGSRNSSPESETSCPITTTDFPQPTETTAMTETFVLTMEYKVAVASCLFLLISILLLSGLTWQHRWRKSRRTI

T3: human IL-2R beta (CD122) (human, UniProt P14784 27-239)
T3 construct: also called IL-2Rβ; IL2Rβ
T3 sequence (looked up): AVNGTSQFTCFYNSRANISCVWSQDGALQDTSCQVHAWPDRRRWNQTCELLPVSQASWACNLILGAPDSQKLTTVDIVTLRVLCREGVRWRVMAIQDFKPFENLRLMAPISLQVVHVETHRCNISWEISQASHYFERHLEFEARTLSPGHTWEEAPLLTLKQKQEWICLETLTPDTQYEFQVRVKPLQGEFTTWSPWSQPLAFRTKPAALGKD

T4: human IL-2R alpha (CD25) (human, UniProt P01589 22-213)
T4 construct: also called IL-2Rα; IL2Rα
T4 sequence (looked up): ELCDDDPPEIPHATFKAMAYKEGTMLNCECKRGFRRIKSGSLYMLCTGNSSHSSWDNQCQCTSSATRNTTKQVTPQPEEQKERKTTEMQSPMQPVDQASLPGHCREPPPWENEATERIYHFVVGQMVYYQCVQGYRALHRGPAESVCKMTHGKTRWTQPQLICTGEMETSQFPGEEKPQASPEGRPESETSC

T5: human IL-13Rα2 (human, UniProt Q14627 27-343)
T5 construct: also called Human IL-13 R alpha 2 Protein; IL-13 decoy receptor
T5 sequence (looked up): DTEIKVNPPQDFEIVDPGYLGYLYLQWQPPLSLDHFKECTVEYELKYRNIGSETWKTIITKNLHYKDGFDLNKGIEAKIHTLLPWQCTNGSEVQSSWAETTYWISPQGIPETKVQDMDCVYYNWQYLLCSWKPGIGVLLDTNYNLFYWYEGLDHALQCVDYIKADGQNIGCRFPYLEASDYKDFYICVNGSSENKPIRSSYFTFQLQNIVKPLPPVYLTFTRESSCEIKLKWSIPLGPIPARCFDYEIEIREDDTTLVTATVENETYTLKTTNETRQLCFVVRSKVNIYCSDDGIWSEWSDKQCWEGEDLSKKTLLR

T6: IL-2Rβγ on Jurkat IL2Rβγ bioassay cells (UniProt P14784 27-551; P31785 23-369, limits assumed)
T6 sequence (looked up) 1: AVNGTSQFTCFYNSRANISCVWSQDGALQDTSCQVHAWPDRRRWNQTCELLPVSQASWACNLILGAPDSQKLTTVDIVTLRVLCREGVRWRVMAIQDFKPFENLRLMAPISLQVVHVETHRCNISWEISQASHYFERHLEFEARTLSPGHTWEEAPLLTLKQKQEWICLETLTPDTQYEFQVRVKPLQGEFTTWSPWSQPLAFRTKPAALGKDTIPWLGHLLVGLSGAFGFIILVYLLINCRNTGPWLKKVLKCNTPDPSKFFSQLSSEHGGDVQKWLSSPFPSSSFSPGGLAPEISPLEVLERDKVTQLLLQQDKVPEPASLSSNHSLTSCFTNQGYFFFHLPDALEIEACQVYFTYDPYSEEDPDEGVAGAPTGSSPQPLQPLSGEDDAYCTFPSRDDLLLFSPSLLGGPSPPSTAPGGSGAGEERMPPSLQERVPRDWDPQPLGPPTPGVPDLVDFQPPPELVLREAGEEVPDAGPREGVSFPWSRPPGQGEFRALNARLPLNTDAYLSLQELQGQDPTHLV
T6 sequence (looked up) 2: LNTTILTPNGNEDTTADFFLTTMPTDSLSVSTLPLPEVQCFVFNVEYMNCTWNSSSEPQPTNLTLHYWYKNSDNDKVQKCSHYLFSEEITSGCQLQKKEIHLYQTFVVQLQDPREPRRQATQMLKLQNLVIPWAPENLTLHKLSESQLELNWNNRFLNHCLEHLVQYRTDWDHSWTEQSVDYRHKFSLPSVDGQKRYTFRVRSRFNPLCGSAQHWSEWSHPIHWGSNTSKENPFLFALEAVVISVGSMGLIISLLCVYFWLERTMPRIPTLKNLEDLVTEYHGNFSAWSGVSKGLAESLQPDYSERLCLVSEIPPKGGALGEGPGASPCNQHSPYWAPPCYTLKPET

T7: mouse PD-1 (mouse, UniProt Q02242 25-167)
T7 construct: also called mPD1
T7 sequence (looked up): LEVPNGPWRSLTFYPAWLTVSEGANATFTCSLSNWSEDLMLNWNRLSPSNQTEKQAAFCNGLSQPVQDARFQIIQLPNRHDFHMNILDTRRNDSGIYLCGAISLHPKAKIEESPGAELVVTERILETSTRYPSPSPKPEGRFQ

T8: mouse PD-1 on Mouse PD-1 T&U Effector Cells (mouse, UniProt Q02242 25-288)
T8 sequence (looked up): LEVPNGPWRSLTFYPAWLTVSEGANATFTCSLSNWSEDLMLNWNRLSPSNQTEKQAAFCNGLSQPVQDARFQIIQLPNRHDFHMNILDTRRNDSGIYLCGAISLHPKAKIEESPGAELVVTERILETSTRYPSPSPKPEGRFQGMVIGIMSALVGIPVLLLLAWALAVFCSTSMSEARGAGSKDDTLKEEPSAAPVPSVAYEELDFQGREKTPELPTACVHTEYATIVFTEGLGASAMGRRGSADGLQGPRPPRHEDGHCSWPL


What was measured:
human IL-13Rα1 = molecular target: T1, human IL-13Rα1; test: SPR (multi-cycle kinetics), construct captured by anti-human IgG (Fc), receptor as analyte
CD25 on CTLL-2 cells = molecular target: T2, CD25 on CTLL-2 cells; test: cell-based or functional assay
human IL-2R beta (CD122) = molecular target: T3, human IL-2R beta (CD122); test: SPR, construct on chip, receptor as analyte
human IL-2R alpha (CD25) = molecular target: T4, human IL-2R alpha (CD25); test: SPR, concentration series 6.2 to 800 nM, set-up of Figure 89
human IL-13Rα2 = molecular target: T5, human IL-13Rα2; test: SPR, construct on chip, receptor as analyte
[1] = molecular target: T6, IL-2Rβγ on Jurkat IL2Rβγ bioassay cells; test: cell-based or functional assay
mouse PD-1 = molecular target: T7, mouse PD-1; test: SPR, construct on chip, mouse PD1 as analyte
[2] = molecular target: T8, mouse PD-1 on Mouse PD-1 T&U Effector …; test: cell-based or functional assay

| binding result (human IL-13Rα1) | CTLL-2 cell proliferation, EC50 (CD25 on CTLL-2 cells) [nM] | Kd (human IL-2R beta (CD122)) [nM] | binding result (human IL-2R alpha (CD25)) | Kd (human IL-13Rα2) [nM] | Jurkat IL2Rβγ bioassay (luciferase), EC50 [1] [nM] | Kd (mouse PD-1) [nM] | mouse PD-1/PD-L1 Blockade Bioassay, EC50 [2] [nM] | Binder |
| --- | --- | --- | --- | --- | --- | --- | --- | --- |
| binds | 0.053 | – | – | – | – | – | – | MDNA109FEAA-Fc-MDNA413 (2:1:2) (Fc fusion, also called MDNA109FEAA^C125-Fc-MDNA413^R39/Q111 (2:1:2)) APTSSSTKKTQLQLEHLLLDLQMILNGINNYKNPKLTRMLTAKFYMPKKATELKHLQCLEEALKPLEEVLNLAQSKNFHFDPRDVVSNINVFVLELKGSETTFMCEYADETATIVEFLNRWITFCQSIISTLTGGGGSGGGGSGGGGS[sequence of human IgG1 Fc with changes not given]GGGSGGGGSGGGGSPGPVPPSTAVRALIEELINITQNQKAPLCNGSMVWSINRTAGMYCAALESLINVSGCSAIEKTQDMLSGFCPHKVSAGQFSSLHVRSSKIEVAQFVKDLLFHLRTLFREGQFN |
| – | – | 13 | no binding (tested: 800 nM) | 0.6 | 0.12 | – | – | MDNA109FEAA-Fc-MDNA132.15 (2:1:1 KIH) (Fc fusion, also called MDNA109FEAA^C125-Fc-MDNA132^L39/Q111/R15 (2:1:1 KIH); BiSKIT with MDNA109FEAA) chain 1: APTSSSTKKTQLQLEHLLLDLQMILNGINNYKNPKLTRMLTAKFYMPKKATELKHLQCLEEALKPLEEVLNLAQSKNFHFDPRDVVSNINVFVLELKGSETTFMCEYADETATIVEFLNRWITFCQSIISTLTGGGGSGGGGSGGGGSDKTHTCPPCPAPELLGGPSVFLFPPKPKDTLMISRTPEVTCVVVDVSHEDPEVKFNWYVDGVEVHNAKTKPREEQYASTYRVVSVLTVLHQDWLNGKEYKCKVSNKALPAPIEKTISKAKGQPREPQVYTLPPCRDELTKNQVSLWCLVKGFYPSDIAVEWESNGQPENNYKTTPPVLDSDGSFFLYSKLTVDKSRWQQGNVFSCSVMHEALHNHYTQKSLSLSPGGGGGSGGGGSGGGGSPGPVPPSTAHRELIRELVNITQNQKAPLCNGSMVWSINLTAGMYCAALESLINVSGCSAIEKTQRMLSGFCPHKVSAGQFSSLHVTGRKIEVAQFVKDLLLHLKKLFKEGQFN chain 2: APTSSSTKKTQLQLEHLLLDLQMILNGINNYKNPKLTRMLTAKFYMPKKATELKHLQCLEEALKPLEEVLNLAQSKNFHFDPRDVVSNINVFVLELKGSETTFMCEYADETATIVEFLNRWITFCQSIISTLTGGGGSGGGGSGGGGS[sequence of human IgG1 Fc with changes not given] |
| – | – | – | – | 0.6 | – | 87.7 | 6 | mAnti-PD1-MDNA132.15 (1:1 KIH) (other, also called Anti-mPD1-MDNA132.15 (1:1 KIH); anti-mPD1-MDNA132.15) heavy 1: EVQLQESGPGLVKPSQSLSLTCSVTGYSITSSYRWNWIRKFPGNRLEWMGYINSAGISNYNPSLKRRISITRDTSKNQFFLQVNSVTTEDAATYYCARSDNMGTTPFTYWGQGTLVTVSSASTKGPSVFPLAPSSKSTSGGTAALGCLVKDYFPEPVTVSWNSGALTSGVHTFPAVLQSSGLYSLSSVVTVPSSSLGTQTYICNVNHKPSNTKVDKKVEPKSCDKTHTCPPCPAPELLGGPSVFLFPPKPKDTLMISRTPEVTCVVVDVSHEDPEVKFNWYVDGVEVHNAKTKPREEQYASTYRVVSVLTVLHQDWLNGKEYKCKVSNKALPAPIEKTISKAKGQPREPQVYTLPPCRDELTKNQVSLWCLVKGFYPSDIAVEWESNGQPENNYKTTPPVLDSDGSFFLYSKLTVDKSRWQQGNVFSCSVMHEALHNHYTQKSLSLSPGGGGGSGGGGSGGGGSPGPVPPSTAHRELIRELVNITQNQKAPLCNGSMVWSINLTAGMYCAALESLINVSGCSAIEKTQRMLSGFCPHKVSAGQFSSLHVTGRKIEVAQFVKDLLLHLKKLFKEGQFN heavy 2: EVQLQESGPGLVKPSQSLSLTCSVTGYSITSSYRWNWIRKFPGNRLEWMGYINSAGISNYNPSLKRRISITRDTSKNQFFLQVNSVTTEDAATYYCARSDNMGTTPFTYWGQGTLVTVSSASTKGPSVFPLAPSSKSTSGGTAALGCLVKDYFPEPVTVSWNSGALTSGVHTFPAVLQSSGLYSLSSVVTVPSSSLGTQTYICNVNHKPSNTKVDKKV[sequence of human IgG1 Fc with changes not given] light: DIVMTQGTLPNPVPSGESVSITCRSSKSLLYSDGKTYLNWYLQRPGQSPQLLIYWMSTRASGVSDRFSGSGSGTDFTLKISGVEAEDVGIYYCQQGLEFPTFGGGTKLELKRTVAAPSVFIFPPSDEQLKSGTASVVCLLNNFYPREAKVQWKVDNALQSGNSQESVTEQDSKDSTYSLSSTLTLSKADYEKHKVYACEVTHQGLSSPVTKSFNRGEC |
